The list shows a part of the results.
Legend:
Assay in all cases: glycan array binding signal (z-score within array); higher = stronger binding
Details in all cases: glycan notation: IUPAC condensed, linker removed
GlcNAc(b1-3)Gal(b1-4)Glc = target: GlcNAc(b1-3)Gal(b1-4)Glc
Summary of the method: (§1)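 Columns mapping to the same glycan were averaged after glycan names were converted to IUPAC-condensed notation. The data come from 3228 arrays in the Consortium for Functional Glycomics database, limited to those with an available protein sequence. Binding is reported as a within-array Z-score averaged across arrays of one protein sequence and across linkers.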

[1] = target: GlcNAc(b1-3)Gal(b1-4)GlcNAc
Summary of the method: as §1

[2] = target: GlcNAc(b1-3)Gal(b1-4)GlcNAc(b1-2)Man(a1-3)[GlcNAc(b1-3)Gal(b1-4)GlcNAc(b1-2)Man(a1-6)]Man(b1-4)GlcNAc(b1-4)GlcNAc
Summary of the method: as §1

[3] = target: GlcNAc(b1-3)Gal(b1-4)GlcNAc(b1-2)Man(a1-3)[GlcNAc(b1-3)Gal(b1-4)GlcNAc(b1-2)Man(a1-6)]Man(b1-4)GlcNAc(b1-4)[Fuc(a1-6)]GlcNAc
Summary of the method: as §1

[4] = target: GlcNAc(b1-3)Gal(b1-4)GlcNAc(b1-2)[GlcNAc(b1-3)Gal(b1-4)GlcNAc(b1-6)]Man(a1-6)[GlcNAc(b1-3)Gal(b1-4)GlcNAc(b1-2)Man(a1-3)]Man(b1-4)GlcNAc(b1-4)GlcNAc
Summary of the method: as §1

[5] = target: GlcNAc(b1-3)Gal(b1-4)GlcNAc(b1-3)Gal(b1-4)GlcNAc
Summary of the method: as §1

[6] = target: GlcNAc(b1-3)Gal(b1-4)GlcNAc(b1-3)Gal(b1-4)GlcNAc(b1-2)Man(a1-3)[GlcNAc(b1-3)Gal(b1-4)GlcNAc(b1-3)Gal(b1-4)GlcNAc(b1-2)Man(a1-6)]Man(b1-4)GlcNAc(b1-4)GlcNAc
Summary of the method: as §1

[7] = target: GlcNAc(b1-3)Gal(b1-4)GlcNAc(b1-3)Gal(b1-4)GlcNAc(b1-2)Man(a1-3)[GlcNAc(b1-3)Gal(b1-4)GlcNAc(b1-3)Gal(b1-4)GlcNAc(b1-2)Man(a1-6)]Man(b1-4)GlcNAc(b1-4)[Fuc(a1-6)]GlcNAc
Summary of the method: as §1

[8] = target: GlcNAc(b1-3)Gal(b1-4)GlcNAc(b1-3)Gal(b1-4)GlcNAc(b1-2)[GlcNAc(b1-3)Gal(b1-4)GlcNAc(b1-3)Gal(b1-4)GlcNAc(b1-6)]Man(a1-6)[GlcNAc(b1-3)Gal(b1-4)GlcNAc(b1-3)Gal(b1-4)GlcNAc(b1-2)Man(a1-3)]Man(b1-4)GlcNAc(b1-4)[Fuc(a1-6)]GlcNAc
Summary of the method: as §1

[9] = target: GlcNAc(b1-3)Gal(b1-4)GlcNAc(b1-3)Gal(b1-4)GlcNAc(b1-3)Gal(b1-4)GlcNAc(b1-2)Man(a1-3)[GlcNAc(b1-3)Gal(b1-4)GlcNAc(b1-3)Gal(b1-4)GlcNAc(b1-3)Gal(b1-4)GlcNAc(b1-2)Man(a1-6)]Man(b1-4)GlcNAc(b1-4)GlcNAc
Summary of the method: as §1

[10] = target: GlcNAc(b1-3)Gal(b1-4)GlcNAc(b1-3)Gal(b1-4)GlcNAc(b1-3)Gal(b1-4)GlcNAc(b1-2)Man(a1-3)[GlcNAc(b1-3)Gal(b1-4)GlcNAc(b1-3)Gal(b1-4)GlcNAc(b1-3)Gal(b1-4)GlcNAc(b1-2)Man(a1-6)]Man(b1-4)GlcNAc(b1-4)[Fuc(a1-6)]GlcNAc
Summary of the method: as §1

[11] = target: GlcNAc(b1-3)Gal(b1-4)GlcNAc(b1-3)Gal(b1-4)GlcNAc(b1-3)Gal(b1-4)GlcNAc(b1-2)[GlcNAc(b1-3)Gal(b1-4)GlcNAc(b1-3)Gal(b1-4)GlcNAc(b1-3)Gal(b1-4)GlcNAc(b1-6)]Man(a1-6)[GlcNAc(b1-3)Gal(b1-4)GlcNAc(b1-3)Gal(b1-4)GlcNAc(b1-3)Gal(b1-4)GlcNAc(b1-2)Man(a1-3)]Man(b1-4)GlcNAc(b1-4)[Fuc(a1-6)]GlcNAc
Summary of the method: as §1

[12] = target: GlcNAc(b1-3)Gal(b1-4)GlcNAc(b1-3)Gal(b1-4)GlcNAc(b1-3)Gal(b1-4)GlcNAc(b1-3)Gal(b1-4)GlcNAc(b1-2)Man(a1-3)[GlcNAc(b1-3)Gal(b1-4)GlcNAc(b1-3)Gal(b1-4)GlcNAc(b1-3)Gal(b1-4)GlcNAc(b1-3)Gal(b1-4)GlcNAc(b1-2)Man(a1-6)]Man(b1-4)GlcNAc(b1-4)GlcNAc
Summary of the method: as §1

[13] = target: GlcNAc(b1-3)Gal(b1-4)GlcNAc(b1-3)Gal(b1-4)GlcNAc(b1-3)Gal(b1-4)GlcNAc(b1-3)Gal(b1-4)GlcNAc(b1-2)Man(a1-3)[GlcNAc(b1-3)Gal(b1-4)GlcNAc(b1-3)Gal(b1-4)GlcNAc(b1-3)Gal(b1-4)GlcNAc(b1-3)Gal(b1-4)GlcNAc(b1-2)Man(a1-6)]Man(b1-4)GlcNAc(b1-4)[Fuc(a1-6)]GlcNAc
Summary of the method: as §1

[14] = target: GlcNAc(b1-3)Gal(b1-4)GlcNAc(b1-3)Gal(b1-4)GlcNAc(b1-3)Gal(b1-4)GlcNAc(b1-3)Gal(b1-4)GlcNAc(b1-2)[GlcNAc(b1-3)Gal(b1-4)GlcNAc(b1-3)Gal(b1-4)GlcNAc(b1-3)Gal(b1-4)GlcNAc(b1-3)Gal(b1-4)GlcNAc(b1-6)]Man(a1-6)[GlcNAc(b1-3)Gal(b1-4)GlcNAc(b1-3)Gal(b1-4)GlcNAc(b1-3)Gal(b1-4)GlcNAc(b1-3)Gal(b1-4)GlcNAc(b1-2)Man(a1-3)]Man(b1-4)GlcNAc(b1-4)[Fuc(a1-6)]GlcNAc
Summary of the method: as §1

[15] = target: GlcNAc(b1-3)Gal(b1-4)GlcNAc(b1-3)Gal(b1-4)GlcNAc(b1-3)GalNAc
Summary of the method: as §1

[16] = target: GlcNAc(b1-3)Gal(b1-4)GlcNAc(b1-3)GalNAc
Summary of the method: as §1

[17] = target: GlcNAc(b1-3)Gal(b1-4)GlcNAc(b1-3)[GlcNAc(b1-3)Gal(b1-4)GlcNAc(b1-3)]GalNAc
Summary of the method: as §1

[18] = target: GlcNAc(b1-3)Gal(b1-4)GlcNAc(b1-6)[Gal(b1-3)]GalNAc
Summary of the method: as §1

[19] = target: GlcNAc(b1-3)Gal(b1-4)GlcNAc(b1-6)[GlcNAc(b1-3)Gal(b1-3)]GalNAc
Summary of the method: as §1

[20] = target: GlcNAc(b1-3)Gal(b1-4)GlcNAc(b1-6)[GlcNAc(b1-3)]Gal(b1-4)GlcNAc
Summary of the method: as §1

GlcNAc(b1-3)GalNAc = target: GlcNAc(b1-3)GalNAc
Summary of the method: as §1

GlcNAc(b1-3)Man = target: GlcNAc(b1-3)Man
Summary of the method: as §1

[21] = target: GlcNAc(b1-3)[GlcNAc(b1-4)][GlcNAc(b1-6)]GlcNAc
Summary of the method: as §1

[22] = target: GlcNAc(b1-3)[GlcNAc(b1-6)]Gal(b1-4)GlcNAc
Summary of the method: as §1

[23] = target: GlcNAc(b1-3)[GlcNAc(b1-6)]GalNAc
Summary of the method: as §1

[24] = target: GlcNAc(b1-4)Gal(b1-4)GlcNAc
Summary of the method: as §1

GlcNAc(b1-4)GlcNAc = target: GlcNAc(b1-4)GlcNAc
Summary of the method: as §1

[25] = target: GlcNAc(b1-4)GlcNAc(b1-4)GlcNAc
Summary of the method: as §1

[26] = target: GlcNAc(b1-4)GlcNAc(b1-4)GlcNAc(b1-4)GlcNAc(b1-4)GlcNAc
Summary of the method: as §1

[27] = target: GlcNAc(b1-4)GlcNAc(b1-4)GlcNAc(b1-4)GlcNAc(b1-4)GlcNAc(b1-4)GlcNAc
Summary of the method: as §1

[28] = target: GlcNAc(b1-4)[GlcNAc(b1-6)]GalNAc
Summary of the method: as §1

[29] = target: GlcNAc(b1-6)Gal(b1-4)GlcNAc
Summary of the method: as §1

GlcNAc(b1-6)GalNAc = target: GlcNAc(b1-6)GalNAc
Summary of the method: as §1

[30] = target: GlcNAc6S(b1-3)Gal(b1-4)GlcNAc
Summary of the method: as §1

Kdn(a2-3)Gal(b1-3)GalNAc = target: Kdn(a2-3)Gal(b1-3)GalNAc
Summary of the method: as §1

Kdn(a2-3)Gal(b1-3)GlcNAc = target: Kdn(a2-3)Gal(b1-3)GlcNAc
Summary of the method: as §1

B1: Cohesin-hMARCO (Homo sapiens) (protein)
chain: LDDLDAVRIKVDTVNAKPGDTVRIPVRFSGIPSKGIANCDFVYSYDPNVLEIIEIEPGDIIVDPNPDKSFDTAVYPDRKIIVFLFAEDSGTGAYAITKDGVFATIVAKVKEGAPNGLSVIKFVEVGGFANNDLVEQKTQFFDGGANVGDTTEPATPTTPVTTPTTTDDLDAASVRIVGSSNRGRAEVYYSGTWGTICDDEWQNSDAIVFCRMLGYSKGRALYKVGAGTGQIWLDNVQCRGTESTLWSCTKNSWGHHDCSHEEDAGVECSVHHHHHH
GlcNAc(b1-3)Gal(b1-4)Glc
  glycan array binding signal (z-score): -0.396
[1]
  glycan array binding signal (z-score): -0.343
[2]
  glycan array binding signal (z-score): -0.546
[3]
  glycan array binding signal (z-score): -0.378
[4]
  glycan array binding signal (z-score): 0.023
[5]
  glycan array binding signal (z-score): -0.388
[6]
  glycan array binding signal (z-score): 0.286
[7]
  glycan array binding signal (z-score): -0.453
[8]
  glycan array binding signal (z-score): -0.25
[9]
  glycan array binding signal (z-score): -0.424
[10]
  glycan array binding signal (z-score): -0.409
[11]
  glycan array binding signal (z-score): -0.46
[12]
  glycan array binding signal (z-score): -0.144
[13]
  glycan array binding signal (z-score): -0.467
[14]
  glycan array binding signal (z-score): -0.537
[15]
  glycan array binding signal (z-score): -0.395
[16]
  glycan array binding signal (z-score): -0.197
[17]
  glycan array binding signal (z-score): -0.556
[18]
  glycan array binding signal (z-score): -0.507
[19]
  glycan array binding signal (z-score): -0.586
[20]
  glycan array binding signal (z-score): -0.444
GlcNAc(b1-3)GalNAc
  glycan array binding signal (z-score): -0.3
GlcNAc(b1-3)Man
  glycan array binding signal (z-score): -0.51
[21]
  glycan array binding signal (z-score): -0.358
[22]
  glycan array binding signal (z-score): -0.168
[23]
  glycan array binding signal (z-score): -0.311
[24]
  glycan array binding signal (z-score): -0.422
GlcNAc(b1-4)GlcNAc
  glycan array binding signal (z-score): -0.339
[25]
  glycan array binding signal (z-score): -0.456
[26]
  glycan array binding signal (z-score): -0.569
[27]
  glycan array binding signal (z-score): -0.301
[28]
  glycan array binding signal (z-score): 0.127
[29]
  glycan array binding signal (z-score): -0.52
GlcNAc(b1-6)GalNAc
  glycan array binding signal (z-score): 0.567
[30]
  glycan array binding signal (z-score): -0.486
Kdn(a2-3)Gal(b1-3)GalNAc
  glycan array binding signal (z-score): -0.515
Kdn(a2-3)Gal(b1-3)GlcNAc
  glycan array binding signal (z-score): -0.49
